# Results published in the supplement of paper PMC3334620.
# The full ranking holds about 33,000 sequences; the median of “E-score (-0.5 to 0.5)” is about -0.054, and the highest 2% start at about 0.35. Some of the results follow.
# Molecular target: T1, Stb5 (UniProt P38699)
# T1 sequence: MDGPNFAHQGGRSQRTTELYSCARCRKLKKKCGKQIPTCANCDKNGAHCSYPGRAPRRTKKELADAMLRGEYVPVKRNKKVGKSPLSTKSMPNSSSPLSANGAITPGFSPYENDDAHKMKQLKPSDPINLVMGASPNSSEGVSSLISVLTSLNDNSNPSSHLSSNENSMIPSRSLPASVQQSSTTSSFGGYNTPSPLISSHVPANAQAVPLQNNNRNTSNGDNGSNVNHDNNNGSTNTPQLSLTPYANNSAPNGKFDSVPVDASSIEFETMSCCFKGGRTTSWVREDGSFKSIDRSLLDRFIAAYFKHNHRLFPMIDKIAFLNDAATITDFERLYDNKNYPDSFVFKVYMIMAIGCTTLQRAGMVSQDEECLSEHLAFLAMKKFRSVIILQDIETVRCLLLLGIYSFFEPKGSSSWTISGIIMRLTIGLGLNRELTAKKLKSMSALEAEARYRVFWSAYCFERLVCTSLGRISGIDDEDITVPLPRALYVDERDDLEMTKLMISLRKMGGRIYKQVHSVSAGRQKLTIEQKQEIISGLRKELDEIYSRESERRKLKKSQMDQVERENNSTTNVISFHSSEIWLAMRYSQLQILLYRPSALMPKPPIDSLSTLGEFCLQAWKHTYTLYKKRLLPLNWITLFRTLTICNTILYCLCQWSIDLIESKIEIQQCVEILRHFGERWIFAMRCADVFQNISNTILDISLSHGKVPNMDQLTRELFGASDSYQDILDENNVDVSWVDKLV
# Test: PBM E-score (8-mer binding enrichment) (E-score (-0.5 to 0.5)); higher = stronger / more preferred TF binding; most listed sequences are background and not binding sites
# Conditions: protein concentration: 200 nM; construct: GST-full length
# In short: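 Bound GST-tagged yeast transcription factors, applied at about 100-200 nM to double-stranded universal all-10-mer Agilent arrays, were detected with fluorescent anti-GST. Scans were normalised with masliner. A modified Wilcoxon-Mann-Whitney statistic, the E-score, was assigned to each ungapped eight-base word pooled with its reverse complement by the Universal PBM Analysis Suite.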
row,Sequence,PBM E-score
1,ATGACATC,-0.108
2,CCCTAGGG,-0.196
3,CACCTCAA,-0.249
4,CTTGCCAA,-0.256
5,TTCAGGAA,-0.22
6,AAAGACCA,-0.216
7,GGTGACGA,-0.0798
8,CAGCTCCC,-0.173
9,GAACCTCC,0.0508
10,ATTAAACA,-0.0475
11,AATATCTA,-0.186
12,TGACAACA,-0.149
13,ACTAGGCC,-0.0202
14,AGAGGTGG,-0.0537
15,AGTAAAGG,-0.00499
16,CACGCGAG,-0.19
17,GAGCAGAC,-0.239
18,CACATGCC,0.00879
19,CTTGGGGA,-0.174
20,ACTCGCAT,-0.0876
21,CCGTAAGG,0.141
22,GTTAGATA,-0.147
23,ACAGCTGC,-0.14
24,ATGATTGA,-0.161

row,Sequence,PBM E-score
1,ATAACCTG,-0.226
2,ACCACACA,-0.14
3,GGAGGGCC,-0.00738
4,CTGACCTA,-0.0591
5,ATATGGTC,-0.0686
6,CCACGCAC,-0.0634
7,CTCGCTTA,0.00719
8,ATCTGCCA,-0.118
9,AAATTGTT,-0.0308
10,ATAACTTA,-0.0529
11,GAGTTGTA,-0.0359
12,CCCCGCCG,0.381
13,AGTGGAAT,0.0263
14,CGACTGAG,-0.318
15,CATTAACA,0.00043
16,CCTAACGC,0.171
17,AGCTGAAT,-0.183
18,CATCAGTA,-0.204
19,CACTGTTA,-0.161
20,CGTTCCTC,0.0313
21,AACCGAGG,-0.25
22,ACCGCTGC,0.364
23,CATTGTAA,-0.144
24,AACCGCAG,0.00062

row,Sequence,PBM E-score
1,ACGACTCC,-0.136
2,CATCATGA,-0.109
3,GGCAAGGA,0.0232
4,CAGCACTG,-0.172
5,AAGAGAGC,-0.253
6,CCGGTAAA,0.294
7,ATAGATAA,0.034
8,ACTCGACC,-0.144
9,CACTGTAG,-0.25
10,GCCACAAC,0.00768
11,CCACAGGC,-0.176
12,AGAGCGCC,0.0749
13,AGTACCGA,0.439
14,ACGAGCCA,-0.137
15,GATTGACC,0.121
16,GACTGATC,-0.0839
17,AGCCATCG,-0.12
18,AAGCCCGC,0.443
19,AGTCTAAT,-0.143
20,GATTGACA,-0.251
21,AGGGTCTG,-0.317
22,AGACATTC,-0.215
23,CCAAAGAA,-0.15
24,CAGACCAG,-0.23

row,Sequence,PBM E-score
1,CCTGTGCA,-0.144
2,CCTATCGC,0.174
3,ATACCTCG,-0.173
4,AAGCGGGC,0.234
5,ATGGCGCC,0.342
6,AGACGGCA,0.0979
7,TATGTCAA,-0.0285
8,CCGATCCG,0.342
9,AATCGCGA,-0.0351
10,CCATAAGC,0.144
11,AAGTCGCA,-0.155
12,AAGATAGG,-0.311
13,AAGGCCCG,0.359
14,ATTGGGGC,-0.0618
15,AGCATATG,-0.201
16,ACAAATCG,0.124
17,GTGAGCAA,-0.0477
18,GCGATGCC,-0.0106
19,CCCCTCAC,-0.231
20,CCTAGGAC,-0.177
21,GAGTCAGC,-0.0831
22,AGACATGA,-0.0806
